Out of some 330,000 compounds screened, about 4,200 (1.3%) were called active. This list was built around the results that the source calls inconclusive (neither active nor inactive); the mix of calls is not that of the screen. The call rests on the fitted dose curve; in most records, active means well fitted activation curve with a large enough effect; inconclusive means small, poorly fitted or top-dose-only effect; inactive means no such curve, though single readings can be large or run the other way. Where the call is inconclusive, the potency comes from a doubtful curve fit.
Experiment: qHTS screen for small molecules that induce genotoxicity in human embryonic kidney (HEK293T) cells expressing luciferase-tagged ELG1; further: nearly all actives have a fitted effect of over 60% in size; on activity change, positive = activation: % of control where 0% means no effect
Conditions: HEK293T ELG1-luciferase reporter, luminescence, 16 h; series mostly up to 46 µM; activity change, positive = activation: at the top concentration
Outline: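 HEK293T cells expressing luciferase-tagged ELG1 were treated with compound or DMSO for 16 hr at 37°C. Luciferase activity was then read after 30 min with ONE-Glo at room temperature; rising signal flags genetic stress.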
Potency means the concentration at half of the fitted maximal effect; tags describe the fitted curve by direction and shape.

| Compound | Potency | activity change, positive = activation |
| --- | --- | --- |
| CCCc1ccc(OCc2nc(-c3ccc(NC(=O)c4cccs4)cc3)no2)cc1 | inconclusive: 23.1 µM [activator, single point] |  |
| O=C(Nc1ccc(N2CCOCC2)c(Cl)c1)c1c(F)c(F)c(F)c(F)c1F |  | inactive: 2.02% |
| O=C(O)c1ccc(CSc2nnnn2C2CCCCC2)cc1 |  | inactive: -2.11% |
| O=C(CN1C(=O)S/C(=C\C=C\c2ccccc2)C1=O)Nc1cccc(O)c1 | inconclusive: 18.4 µM [activator, partial curve, poor fit] |  |
| COC(=O)CNC(=O)CCc1nnc(C2(c3ccc(Cl)cc3)CCC2)o1 | inconclusive: 25.9 µM [activator, partial curve, poor fit] |  |
| CCN(CC)S(=O)(=O)c1cccc(N=Nc2c(O)c3ccccc3oc2=O)c1 |  | inactive: -2.19% |
| COc1ccc(NC(=O)c2ccco2)c(OC)c1 | inconclusive: 18.4 µM [activator, single point] |  |
| Cc1cc(N)n2nc(-c3ccccc3)cc2n1 | active: 9.2 µM |  |
| COc1ccc(C(=O)Nc2ccc(N3CCCC3)cc2)cc1 | inconclusive: 20.6 µM [activator, partial curve, poor fit] |  |
| Cc1cccc(OCCCn2c(=O)sc3ccccc32)c1 | inconclusive: 16.4 µM [activator, single point] |  |
| O=C(OCc1cc(=O)n2c(n1)sc1ccccc12)c1ccc(O)cc1 | inconclusive: 18.4 µM [activator, partial curve, poor fit] |  |
| O=C(Nc1cccc(Cl)c1)c1ccc2c(c1)OCCO2 | active: 2.06 µM |  |
| CSCCC(NC(=O)c1ccccc1Cl)C(=O)NCC(c1ccco1)N1CCCCC1 (centres undefined) |  | inactive: -2.23% |
| O=C(NCCc1ccccc1)C(=O)Nc1ccc([N+](=O)[O-])cc1 |  | inactive: 0.719% |
| CCOc1nc(NC(=O)NS(=O)(=O)c2ccccc2F)nc(-c2ccccc2)n1 | inconclusive: 20.6 µM [activator, partial curve, poor fit] |  |
| O=C(N/N=C/c1c(F)cccc1Cl)c1cc(C2CC2)[nH]n1 | inconclusive: 18.3 µM [activator, single point] |  |
| Cn1c(NC(=O)/C=C/c2ccccc2)cc(=O)n(C)c1=O | inconclusive: 11.6 µM [activator, partial curve, poor fit] |  |
| COc1ccc2nc(NS(=O)(=O)c3ccc(NC(C)=O)cc3)sc2c1 |  | inactive: 2.32% |
| COc1ccccc1N1CCN(/N=C/c2ccc(O)cc2O)CC1 | inconclusive: 8.2 µM [activator, partial curve] |  |
| COCCN1CC(C(=O)NCc2ncccc2C)CCC1=O (centres undefined) |  | inactive: 20.9% |
| COc1cc(NC(=O)c2csc3c2CCCC3)ncn1 | active: 4.11 µM |  |
| COc1ccc(NC(=O)c2ccc(CN3CCc4ccccc4C3)cc2)cc1OC |  | inactive: 2.71% |
| COc1cccc(NC(=O)COc2ccc(C)cc2)c1 | inconclusive: 18.4 µM [activator, partial curve, poor fit] |  |
| CCN(c1ccccc1)S(=O)(=O)c1ccc(Oc2ccc([N+](=O)[O-])cc2)nc1 | inconclusive: 10.3 µM [activator, partial curve, poor fit] |  |
| COc1cccc(C(=O)NCCS(=O)(=O)NCCc2ccccc2)c1 | inconclusive: 16.4 µM [activator, partial curve] |  |

| Compound | Potency | activity change, positive = activation |
| --- | --- | --- |
| CCC(C)c1ccc(NC(=O)CSc2nncn2N)cc1 (centres undefined) | inconclusive: 20.6 µM [activator, single point] |  |
| Cc1nc2cc(NC(=O)c3ccc(Cl)cc3)ccc2n1C | active: 1.03 µM |  |
| c1ccc(-c2noc(-c3ccncc3)n2)nc1 | active: 20.6 µM |  |
| Cc1ccc(NC(=O)Cc2nc(CSc3nnc(-c4ccc5c(c4)OCO5)o3)cs2)cc1 |  | inactive: 3.56% |
| Cc1ccc2cc(CN(CC3CCCO3)C(=O)c3cccs3)c(=O)[nH]c2c1 (centres undefined) |  | inactive: 5.95% |
| CCc1noc(C)c1C(=O)N(C)CC(=O)Nc1cccc(OC)c1 |  | inactive: -0.056% |
| COc1cccc(C(=O)Nc2nnc(-c3ccccc3)s2)c1OC | inconclusive: 5.17 µM [activator, full curve, poor fit] |  |
| O=C(Nc1ccccc1)/C(=C/c1ccc(F)cc1)NC(=O)c1ccco1 |  | inactive: 0.901% |
| Cc1cccc(NCc2nc(-c3ccccc3)no2)c1 | inconclusive: 18.4 µM [activator, single point] |  |
| COc1cc(C(=O)O)cc(NC(=O)c2cccs2)c1OC |  | inactive: 1.56% |
| O=C(NCCCN1CCCC1=O)c1ccc2c(c1)OCO2 | inconclusive: 25.9 µM [activator, partial curve, poor fit] |  |
| COc1ccc(N(CC(=O)N/N=C(\C)c2ccc(OC)c(OC)c2)S(=O)(=O)c2ccccc2)cc1 | inconclusive: 16.4 µM [activator, single point] |  |
| CCN(CC)CCn1c2c(c(SCC(=O)Nc3ccc(C(C)C)cc3)nc1=O)CCC2 | inconclusive: 29.1 µM [activator, single point] |  |
| COc1ccc(/C=C2\N=C3CCCCCN3C2=O)cc1OC |  | inactive: 3.66% |
| CCn1cc(Cl)c(C(=O)N2N=C3/C(=C/c4cccs4)CCCC3C2c2cccs2)n1 (centres undefined) |  | inactive: -5.6% |
| N/C(=N\OC(=O)c1ccc(Br)cc1)c1cccc([N+](=O)[O-])c1 | inconclusive: 14.6 µM [activator, partial curve] |  |
| CC(=O)c1cc2c(cc1NC(=O)CSc1nc3ccccc3o1)OCO2 | active: 10.3 µM |  |
| Cc1[nH]n(-c2ccccc2)c(=O)c1N=Nc1cccc(C(=O)O)c1 | inconclusive: 0.092 µM [activator, partial curve, poor fit] |  |
| COc1ccc(S(=O)(=O)Nc2cccc3c2O[C@H](CN(C)C(=O)Nc2c(C)noc2C)[C@@H](C)CN([C@H](C)CO)C3=O)cc1 |  | inactive: 5.06% |
| Cn1ccc(NC(=O)Nc2ccc(Cl)cc2)n1 | inconclusive: 16.4 µM [activator, partial curve, poor fit] |  |
| Cc1ccc2c(c1)sc1nc(=O)n(-c3cccc(Cl)c3)c(=O)n12 | inconclusive: 10.3 µM [activator, partial curve] |  |
| N#Cc1cnc2sc3ccccc3n2c1=N | active: 14.1 µM |  |
| COc1ccccc1/C=N/Nc1cc(C)nc2ccc(C)cc12 |  | inactive: 6.94% |
| CN(C)S(=O)(=O)c1ccc(NC(=O)c2ccccn2)cc1 | inconclusive: 3.66 µM [activator, partial curve, poor fit] |  |
| O=C(Cn1ccc([N+](=O)[O-])n1)N1CCCc2ccccc21 | inconclusive: 20.6 µM [activator, partial curve, poor fit] |  |

| Compound | Potency | activity change, positive = activation |
| --- | --- | --- |
| CCOc1cc(C(=O)N/N=C/C(Br)=C/c2ccccc2)cc(OCC)c1OCC |  | inactive: 6.18% |
| CCCCc1nc(NCC2CCCO2)c(C#N)c2c1COC(C)(C)C2 (centres undefined) |  | inactive: -4.93% |
| CC(=O)Nc1ccc(C=C(C(C)=O)C(C)=O)cc1 | inconclusive: 29.1 µM [activator, partial curve, poor fit] |  |
| Cc1cc(C(=O)NN=C2CCCCCC2)c(C)o1 |  | inactive: 2.97% |
| CCN(C(=O)Cc1cccs1)c1nnc(-c2cc(OC)c(OC)c(OC)c2)s1 | inconclusive: 29.1 µM [activator, single point] |  |
| CC1CN(C(=O)Nc2ccc3snnc3c2)c2ccccc21 (centres undefined) | inconclusive: 18.4 µM [activator, single point] |  |
| CN1CCN(/N=C/c2ccc(OCc3ccccc3)cc2)CC1 | inconclusive: 25.9 µM [activator, single point] |  |
| O=C(Nc1nc2ccc(Cl)cc2s1)C1CCCO1 (centres undefined) | active: 4.61 µM |  |
| O=C(NCCC1CCCCN1S(=O)(=O)c1ccc(F)cc1)C(=O)Nc1ccccc1 (centres undefined) |  | inactive: -3.16% |
| Cc1cc(C)c2c(n1)sc1c(=O)n(CC(=O)c3ccccc3)cnc12 | inconclusive: 18.3 µM [activator, partial curve] |  |
| CC(OC(=O)c1cccc(-n2cnnn2)c1)C(=O)c1ccccc1 (centres undefined) | inconclusive: 20.6 µM [activator, partial curve, poor fit] |  |
| O=C(Cc1cccs1)NCc1ccc2c(c1)OCO2 | inconclusive: 14.6 µM [activator, partial curve] |  |
| COC(=O)/C(=C1\Oc2ccc(C(C)(C)C)cc2S1)C(F)(F)F | inconclusive: 20.6 µM [activator, partial curve, poor fit] |  |
| CCc1nnc(NC(=O)c2ccc(Cl)nc2)s1 | inconclusive: 8.2 µM [activator, partial curve, poor fit] |  |
| Cc1ccccc1-n1nnnc1SCC(=O)c1c(N)n(C2CC2)c(=O)[nH]c1=O |  | inactive: -2.8% |
| O=C(Nc1ccccc1Cl)c1ccc(COc2ccc3c(c2)CCC3)cc1 | inconclusive: 11.6 µM [activator, partial curve, poor fit] |  |
| C=CC[n+]1c(-c2ccc(OC)cc2)csc1NNC(=O)Nc1ccccc1 | inconclusive: 29.1 µM [activator, partial curve, poor fit] |  |
| c1ccc(Cc2cc(-c3ccccc3)on2)cc1 | inconclusive: 16.4 µM [activator, single point] |  |
| Cc1nn(Cc2c(F)c(F)c(F)c(F)c2F)c(C)c1NC(=O)c1ccc(COc2cc(Cl)ccc2Cl)cc1 | inconclusive: 23.1 µM [activator, partial curve, poor fit] |  |
| CC(=O)c1cc2c(=O)c3cc(C)ccc3oc2nc1C | active: 10.3 µM |  |
| N#Cc1c(NC(=O)c2ccccc2)sc2c1CCC2 | active: 2.91 µM |  |
| CN1CCN(C(=O)c2ccc(-c3ccc(Br)cc3)o2)CC1 | inconclusive: 5.8 µM [activator, partial curve, poor fit] |  |
| Cc1nc2cc(NS(=O)(=O)c3ccc(Br)cc3)ccc2n1C |  | inactive: -5.91% |
| COc1ccc2cc(C(=O)N3CCN(C)CC3)[nH]c2c1 | inconclusive: 13 µM [activator, partial curve, poor fit] |  |

Reference: PubChem BioAssay AID504466 (National Center for Advancing Translational Sciences (NCATS), 2011)
